# From PubChem BioAssay AID504332 (National Center for Advancing Translational Sciences (NCATS), 2011)
# In all, about 350,000 compounds went through this assay and about 31,000 (8.9%) were called active. The inconclusive results got no clear call from the source; some entries with a clear call stand among them for comparison. The call rests on the fitted dose curve; in most records, active means well fitted inhibition curve with a large enough effect; inconclusive means small, poorly fitted or top-dose-only effect; inactive means no such curve, though single readings can be large or run the other way. Potencies beside an inconclusive call are fits to weak or partial responses and may not hold up.
# Molecular target: Histone-lysine N-methyltransferase EHMT2 (Homo sapiens) (UniProt Q96KQ7)
# Sequence of UniProt Q96KQ7 (Q96KQ7 whole entry, looked up): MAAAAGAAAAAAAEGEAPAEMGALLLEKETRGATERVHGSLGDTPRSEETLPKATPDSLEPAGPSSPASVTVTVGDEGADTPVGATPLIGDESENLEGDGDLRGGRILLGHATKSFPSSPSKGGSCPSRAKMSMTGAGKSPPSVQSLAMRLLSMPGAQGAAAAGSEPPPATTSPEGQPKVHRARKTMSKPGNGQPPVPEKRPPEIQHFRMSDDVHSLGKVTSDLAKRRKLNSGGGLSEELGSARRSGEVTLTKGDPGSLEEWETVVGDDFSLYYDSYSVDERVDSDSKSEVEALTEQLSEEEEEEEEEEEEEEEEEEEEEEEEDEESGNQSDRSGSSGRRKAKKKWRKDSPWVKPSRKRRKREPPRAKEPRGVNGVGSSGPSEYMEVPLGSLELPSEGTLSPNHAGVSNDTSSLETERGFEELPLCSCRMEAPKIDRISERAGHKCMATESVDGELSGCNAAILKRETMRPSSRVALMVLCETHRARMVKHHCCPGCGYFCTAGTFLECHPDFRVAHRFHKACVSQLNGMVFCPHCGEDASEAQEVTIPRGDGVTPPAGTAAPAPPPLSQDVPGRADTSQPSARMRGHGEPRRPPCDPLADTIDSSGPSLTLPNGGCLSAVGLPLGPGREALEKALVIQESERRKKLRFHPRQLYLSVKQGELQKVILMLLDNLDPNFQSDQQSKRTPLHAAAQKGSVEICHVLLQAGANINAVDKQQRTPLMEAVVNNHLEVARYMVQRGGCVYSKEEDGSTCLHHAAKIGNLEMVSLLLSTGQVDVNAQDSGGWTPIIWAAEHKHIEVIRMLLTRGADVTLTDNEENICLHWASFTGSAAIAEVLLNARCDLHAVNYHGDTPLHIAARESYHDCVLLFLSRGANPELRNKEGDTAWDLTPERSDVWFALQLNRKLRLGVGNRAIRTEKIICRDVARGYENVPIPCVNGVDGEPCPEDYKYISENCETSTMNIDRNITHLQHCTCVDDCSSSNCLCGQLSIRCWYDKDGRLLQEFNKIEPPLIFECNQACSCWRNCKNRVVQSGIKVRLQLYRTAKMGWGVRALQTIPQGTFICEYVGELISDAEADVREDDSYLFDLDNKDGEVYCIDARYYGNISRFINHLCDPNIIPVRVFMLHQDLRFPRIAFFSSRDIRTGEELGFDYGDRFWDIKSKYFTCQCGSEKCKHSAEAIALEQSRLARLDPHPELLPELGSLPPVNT
# Assay: qHTS Assay for Inhibitors of Histone Lysine Methyltransferase G9a; further: nearly all actives have a fitted effect of over 75% in size
# Conditions: G9a H3K9 monomethylation, AlphaScreen, 2 h; activity, negative = inhibition: at 59 µM (top of the series) unless noted
# Method in brief: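 Using a bead-based AlphaScreen, monomethylated H3K9 product from 2 h room-temperature reactions (G9a 20 nM, peptide 500 nM, SAM 20 uM) was detected with 0.5 ug/mL rabbit anti-H3K9me1 antibody.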
# On the % scale 0 is the no-effect control and ±100 the full control effect; potency means the concentration at half of the fitted maximal effect; tags describe the fitted curve by direction and shape.
SMILES,Potency,"activity, negative = inhibition"
O=P(c1ccccc1)(c1ccccc1)C(O)c1ccco1 (stereo not drawn),"inconclusive: 22.4 µM [inhibitor, partial curve, poor fit]",
CCOCCc1nnc(NC(=O)C(=O)c2cc(C)n(-c3ccc(C)c(C)c3)c2C)s1,"inconclusive: 25.1 µM [inhibitor, partial curve, poor fit]",
Cc1nn(-c2ccccc2)c2c1C1(C(=O)N(C(C)C)c3ccccc31)C(C#N)=C(N)O2 (stereo not drawn),"inconclusive: 1.78 µM [inhibitor, full curve, poor fit]",
COc1ccc2[nH]c(=O)c(CN(C3CCCCC3)C(c3nnnn3Cc3ccco3)C(C)C)cc2c1 (stereo not drawn),active: 22.4 µM,
CC(=O)C1=C(C)NC(SCC(N)=O)=C(C#N)C1c1cccs1 (stereo not drawn),"inconclusive: 28.2 µM [inhibitor, single point]",
CCn1c(SCC(=O)c2ccc(NS(=O)(=O)c3ccccc3)cc2)nnc1-c1cccs1,"inconclusive: 11.2 µM [inhibitor, single point]",
Cc1cc(F)ccc1S(=O)(=O)N(C(=O)c1ccncc1)c1ccc(OC(=O)c2ccncc2)cc1,"inconclusive: 39.8 µM [inhibitor, partial curve, poor fit]",
CC(C)(C)c1nn(-c2ccccc2)c2[nH]c(=O)c(C=O)cc12,"inconclusive: 44.7 µM [inhibitor, partial curve, poor fit]",
Cc1ccc(OCCCC(=O)NC(C)c2ccccc2)c(C)c1 (stereo not drawn),,inactive: -28.9% [at 102 µM]
N[C@H](C(=O)O)[C@H]1C[C@@H]1C(=O)O,inactive,
CCN(Cc1ccncc1)Cc1cn[nH]c1-c1ccc(OC)cc1F,active: 50.1 µM,
O=S(=O)(Nc1ccc(Cl)cn1)c1ccc(Cl)cc1,"inconclusive: 44.7 µM [inhibitor, partial curve, poor fit]",
CC(=O)N1[C@H](Cc2ccccc2)C=C[C@]1(C)C(=O)NCc1ccccn1,"inconclusive: 89.1 µM [inhibitor, single point]",
O=C(N/N=C/c1ccc([N+](=O)[O-])o1)C1CC1,"inconclusive: 50.1 µM [inhibitor, partial curve, poor fit]",
CC(C)(C)c1ccc(NNC(=O)C2CCC2)cc1,active: 14.1 µM,
Cc1ccc(N2CC(NC(=O)c3ccc(S(=O)(=O)N(C)C)cc3)CC2=O)cc1C (stereo not drawn),,inactive: -3.95%
CCC(C)NC(=O)c1ccc2c(c1)sc1nc(-c3ccc(OC)cc3)cn12 (stereo not drawn),,inactive: -10.6%
COC(=O)c1sccc1S(=O)(=O)N(CC(=O)Nc1cc(C)ccc1C)c1ccc(C)c(C)c1,,inactive: 12.3%
CCC(C)Sc1ccc([C@@H]2[C@H]3C(=O)N(CC)C(=O)[C@H]3[C@]3(C(=O)OC)CCCN23)cc1OC (stereo partly drawn),,inactive: 0.954% [at 2.33 µM]
c1ccc2c(c1)C(=Nn1cnnc1)c1ccccc1-2,,inactive: 8.54% [at 12.7 µM]
CS(=O)(=O)N1CCN(c2ccccc2NC(=O)c2cc3ccccc3o2)CC1,,inactive: 9.74% [at 102 µM]
COC(=O)CSc1nnc(CNc2ccc(OC)cc2)n1C,"inconclusive: 0.794 µM [inhibitor, partial curve, poor fit]",
CC1CCCN(C(=O)c2cc(N3C(=O)C4C5CCC(C5)C4C3=O)ccc2Cl)C1 (stereo not drawn),"inconclusive: 89.1 µM [inhibitor, single point]",

SMILES,Potency,"activity, negative = inhibition"
O=C(NCC(c1cccs1)S(=O)(=O)c1cccs1)c1ccc(F)c(F)c1 (stereo not drawn),,inactive: 5.89%
CC(Oc1ccc(F)cc1)C(=O)Oc1ccc(N(C)S(=O)(=O)c2ccccc2)cc1 (stereo not drawn),"inconclusive: 39.8 µM [inhibitor, single point]",
CC(=O)N1CCC2(CC1)C(C#N)=C(N)Oc1n[nH]c(CSc3ccc(C)cc3)c12,"inconclusive: 89.1 µM [inhibitor, single point]",
O=S(=O)(c1ccc2nc(-c3ccccc3)[nH]c2c1)N1CCN(c2ccc(Cl)cc2)CC1,"inconclusive: 89.1 µM [inhibitor, single point]",
CC(C)(C)c1ccc(OCCCNC2CCCC2)cc1,active: 11.2 µM,
O=C(Nc1ccc(N2CCN(C(=O)c3ccco3)CC2)cc1)c1ccc(Br)cc1,,inactive: 0.499% [at 102 µM]
CCC1(C)NC(=O)N(CC(=O)c2cc(C)n(C3CC3)c2C)C1=O (stereo not drawn),"inconclusive: 89.1 µM [inhibitor, single point]",
O=C(CCN1C(=O)c2ccccc2C1=O)C1=NN[C@@H]2C(=O)N(c3ccc4c(c3)OCCO4)C(=O)[C@H]12,"inconclusive: 50.1 µM [inhibitor, partial curve, poor fit]",
CC(=O)NC(CC(=O)Nc1cc(Cl)ccc1-n1cncn1)c1ccccc1 (stereo not drawn),"inconclusive: 89.1 µM [inhibitor, partial curve, poor fit]",
O=C(CSc1nc2c([nH]c3ccccc32)c(=O)n1-c1cccc(Cl)c1)N1CCCC1,,inactive: -5.31%
CCN(CC)C(=O)c1[nH]cnc1C(=O)N[C@@H](CC(C)C)C(=O)OC(C)(C)C,,inconclusive: -86% [inhibitor]
COc1ccc2[nH]cc(CCNc3ccnc(-c4c(C)noc4C)n3)c2c1,,inactive: 33.8% [at 0.501 µM]
CCC(CC)C(=O)N1c2ccccc2C(C)(c2ccccc2)CC1(C)C (stereo not drawn),,inactive: 15.4%
COC(=O)CN1C(=O)CSc2ccc(S(=O)(=O)Nc3ccc(F)c(Cl)c3)cc21,"inconclusive: 7.08 µM [inhibitor, single point]",
O=C(Nc1ccc(O)c2c(=O)cc(-c3ccccc3Cl)oc12)c1ccccc1Cl,"inconclusive: 89.1 µM [inhibitor, single point]",
Cn1/c(=N/N=C/c2ccccn2)sc2ccccc21,"inconclusive: 10 µM [inhibitor, partial curve, poor fit]",
COC(=O)c1ccc(-c2ccc(/C=N/NC(=O)Cc3nnc(N)s3)o2)cc1,"inconclusive: 39.8 µM [inhibitor, single point]",
Cc1sc2nc(-c3cccnc3)[nH]c(=O)c2c1-c1ccccc1,active: 11.2 µM,
CCCc1ccc(OCc2nc(-c3ccc(NC(=O)c4ccco4)cc3)no2)cc1,"inconclusive: 15.8 µM [inhibitor, full curve]",
CCN(C(=O)c1sc(N)c(C#N)c1C)C1CCCCC1,"inconclusive: 70.8 µM [inhibitor, partial curve]",
COc1ccc(-c2[nH]ncc2CN2CCCC(C(=O)c3cccc(OC)c3)C2)cc1 (stereo not drawn),active: 44.7 µM,
O=C(O)c1ccc(Cn2cc(/C=C\[N+](=O)[O-])c3ccccc32)o1,active: 39.8 µM,
Cc1nnsc1C(=O)NNS(=O)(=O)c1ccccc1,,inactive: -40.8% [at 12.7 µM]

SMILES,Potency,"activity, negative = inhibition"
Cc1ccc(/C=N/n2c(COc3ccccc3)n[nH]c2=S)o1,active: 12.6 µM,
NS(=O)(=O)c1cccc(NC(=O)COC(=O)CCCc2c[nH]c3ccccc23)c1,"inconclusive: 50.1 µM [inhibitor, partial curve]",
Cc1cccn2c(=O)c3cc(C(=O)NCCCn4ccnc4)n(C)c3nc12,,inconclusive: -88.3% [inhibitor]
CCc1ccc2oc(-c3ccc(C)c(NC(=O)c4cc([N+](=O)[O-])ccc4N4CCOCC4)c3)nc2c1,"inconclusive: 0.794 µM [inhibitor, partial curve, poor fit]",
CC(C)NC(=O)CSc1nnc(-c2ccco2)n1N,"inconclusive: 6.31 µM [inhibitor, single point]",
CCCCC(O)(c1ccc(F)cc1)C(CN1CCOCC1)c1ccc(Cl)cc1 (stereo not drawn),,inactive: -18.7% [at 102 µM]
CCOc1ccc2nc(Cl)sc2c1,active: 35.5 µM,
O=C(O)CCn1c(SCc2ccccc2)nc2ccccc21,,inactive: -33.7%
CCOC(=O)Cn1c(=O)oc2cc(S(=O)(=O)N3CCN(c4cccc(Cl)c4)CC3)ccc21,"inconclusive: 39.8 µM [inhibitor, partial curve, poor fit]",
CCOCCCn1c(SCC(=O)Nc2ccccc2CC)nc2ccccc2c1=O,,inactive: 11.9%
Cc1ccc(-n2[nH]c(C)c(/C=N/c3cccc(C)n3)c2=O)cc1,active: 50.1 µM,
COc1ccc(NCc2cc3cc(OC)ccc3[nH]c2=O)cc1,"inconclusive: 44.7 µM [inhibitor, partial curve]",
O=C(Nc1ccc2c(c1)OCO2)[C@@H]1[C@@H]2C(=O)N(C3CCCCC3)C(=O)[C@@H]2C2c3ccccc3C=CN21 (stereo partly drawn),active: 10 µM,
CCN1CCCC1CNC(=O)c1ccc(Sc2ccc(F)cc2)c([N+](=O)[O-])c1 (stereo not drawn),"inconclusive: 39.8 µM [inhibitor, partial curve, poor fit]",
Cc1ccc(N2C=Nc3ccc(C)c4nc(C)cc2c34)cc1,,inactive: 2.16% [at 102 µM]
Cc1cc(O)c(CN2CCN(S(=O)(=O)c3cccs3)CC2)cc1C(C)C,,inactive: -6.98% [at 12.7 µM]
O=C(Cc1ccccc1[N+](=O)[O-])Nc1nccs1,"inconclusive: 50.1 µM [inhibitor, partial curve]",
CCOC(=O)C/C(C)=N/NC(=O)CN(c1ccc(Br)cc1)S(=O)(=O)c1ccccc1,"inconclusive: 0.158 µM [inhibitor, full curve]",
COc1ccc(O)c(C2=Nc3ccccc3N=C(c3cccs3)C2)c1,"inconclusive: 12.6 µM [inhibitor, single point]",
CCOC(=O)c1ccc(N2C(=O)C(O)=C(C(C)=O)C2c2ccccc2)cc1 (stereo not drawn),"inconclusive: 35.5 µM [inhibitor, single point]",
Cc1ccc(NC(=O)c2cccc3c(=O)c4c([nH]c23)CCCC4)c(C)c1,"inconclusive: 39.8 µM [inhibitor, partial curve, poor fit]",
COc1cc(NC(=O)Nc2ccc3c(c2)OCO3)cc(OC)c1OC,"inconclusive: 56.2 µM [inhibitor, partial curve, poor fit]",
